Hit rate of the full screen: of about 420,000 compounds, about 64,000 (15%) were called active. The inconclusive results got no clear call from the source; some entries with a clear call stand among them for comparison. Calls come from the whole dose curve; as a rule, active = well fitted inhibition curve with a large enough effect; inconclusive = small, poorly fitted or top-dose-only effect; inactive = flat fitted curve, though single readings scatter. No potency is given beside an inconclusive call; the fits are too rough.
Experiment: qHTS for Inhibitors of human tyrosyl-DNA phosphodiesterase 1 (TDP1): qHTS in cells in absence of CPT; note: nearly all actives have a fitted effect of over 55% in size
Conditions: DT40 Tdp1-/- hTDP1 cells, no CPT, ATP luminescence, 48 h; activity change, negative = growth inhibition: at 46.2 µM (top of the series) unless noted
Summary of the method: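 No-CPT arm: Tdp1-/-;hTDP1 DT40 cells (400/well) plus compounds, incubated ≥48 hr at 37 °C. Readout CellTiter-Glo luminescence.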
% is set by controls: 0 for no effect and ±100 for the full control effect; potency is the fitted concentration of half-maximal effect; tags give direction and shape of the fitted curve.

SMILES | Potency | activity change, negative = growth inhibition
COc1ccc(-c2cc3cc(F)ccc3cn2)cc1 | inactive | 
c1ccc(-c2ccc(-n3ccnc3)cc2)cc1 | inconclusive [inhibitor, single point] | 
CCOC(=O)c1cccc(NC(=O)CN2C(=O)c3ccccc3Sc3ncccc32)c1 | inconclusive [inhibitor, partial curve, poor fit] | 
CCN(CC)S(=O)(=O)c1ccc2oc(C(=O)NCC3COc4ccccc4O3)c(C)c2c1 (centres undefined) | active: 23.1 µM | 
N#Cc1nc(COc2ccc(Br)cc2)oc1N1CCCCCC1 | active: 16.4 µM | 
COc1cc(NS(=O)(=O)c2cc(C)ccc2OC)c(OC)cc1Cl | inconclusive [inhibitor, single point] | 
COCCCNC(=O)CN1C(=O)/C(=C\c2ccc(C)cc2)Sc2ccccc21 | inconclusive [inhibitor, single point] | 
C/C(=N/NC(=O)c1ccc(NC(=O)c2ccc(F)cc2)cc1)c1ccccc1 | inconclusive [inhibitor, partial curve] | 
CCn1c2c(c3cc(Br)ccc31)CCC/C2=N\O |  | inconclusive: -31.1% [inhibitor]
CC1=CS(=O)(=O)CC1Sc1nc2ccccc2[nH]1 (centres undefined) | inactive | 
CC1(C(=O)O)CCCN(C(=O)c2ccc(F)cc2Cl)C1 (centres undefined) | inactive | 
O=C1CCC(C(=O)N2CCSCC2)CN1CCc1cccc(F)c1 (centres undefined) | inactive | 
O=C(Nc1cc(Br)ccc1O)C1CC(c2c(F)cccc2Cl)=NO1 (centres undefined) | inconclusive [inhibitor, single point] | 
CCCCN1C(=N)N([C@@H](CN2CCC[C@H]2CN2C(N)=NC[C@@H]2Cc2ccccc2)C(C)C)C[C@H]1Cc1ccccc1 | active: 16.4 µM | 
Cc1ccc(C(=O)NCc2ccc(N(C)C)cc2)cc1NC(=O)c1nsc2ccccc12 | active: 16.4 µM | 
CCn1c(=NC(=O)c2cccc(N3C(=O)CCC3=O)c2)sc2c(OC)ccc(OC)c21 | active: 18.4 µM | 
CCCOc1ccc(N2C(=O)C3ON(c4ccccc4)C(CCC)C3C2=O)cc1 (centres undefined) | inconclusive [inhibitor, single point] | 
C/C=C/c1cccc(-c2nc(C(=O)NC3CCC3)cc3c2[C@H](CCO)N(S(=O)C(C)(C)C)C3)c1 (some centres undefined) | inconclusive [inhibitor, single point] | 
Cc1ccc(OCC(O)CN2CCN(CC(O)COC(C)C)CC2)c(C(C)(C)C)c1 (centres undefined) | inconclusive [inhibitor, single point] | 
Cc1cccc(CSc2ncnc3c2cnn3Cc2ccccc2)c1 | inconclusive [inhibitor, partial curve] | 
O=S(=O)(c1ccc(F)cc1)N1CCC2(CC1)OCCN2S(=O)(=O)c1cccs1 | inconclusive [inhibitor, single point] | 
CCOc1ccc2c(c1)S/C(=C\c1cccs1)C(=O)N2 | inconclusive [inhibitor, single point] | 
CCN(CC)S(=O)(=O)c1ccc2c(c1)nc(CCC(=O)Nc1ccc3c(c1)OCO3)n2C | inconclusive [inhibitor, partial curve, poor fit] | 

SMILES | Potency | activity change, negative = growth inhibition
COc1cccc(-n2nnnc2SCC(=O)Nc2ccc(OC)cc2OC)c1 | inactive | 
Cc1ccc(S(=O)(=O)N2CCN(C(=O)CSc3ncn[nH]3)CC2)c(C)c1 | inconclusive [inhibitor, single point] | 
O=C(CN(C(=O)c1csnn1)c1cccc(F)c1)NCc1ccc(F)cc1 | inactive | 
CCc1ccc2nc(N(CCCN(C)C)C(=O)c3ccc(S(=O)(=O)N4CCCc5ccccc54)cc3)sc2c1 | inconclusive [inhibitor, single point] | 
CC(C)(Oc1ccc(Cl)cc1)C(=O)NC1=NN(c2ccccc2)C(=O)C1 | inconclusive [inhibitor, single point] | 
C=C(CC1([C@@H](NP(=O)(c2ccccc2)c2ccccc2)[C@H]2C[C@@H]2CCCC)CC1)c1ccccc1 | inconclusive [inhibitor, single point] | 
C[C@]12CCC(=O)C=C1CCC1C3CC[C@](O)(C(=O)CO)[C@@]3(C)CC3OC312 (some centres undefined) |  | inactive: -2.2% [at 9.04 µM]
COc1ccccc1CNC(=O)C1CCCN(S(=O)(=O)c2ccc3c(c2)CCCN3C(C)=O)C1 (centres undefined) | inconclusive [inhibitor, single point] | 
Cc1cc([N+](=O)[O-])ccc1NC(=O)c1cccc(NC(=O)C(C)C)c1 | active: 23.1 µM | 
COc1ccc2oc(C(=O)NN3C(C)CCCC3C)c(C)c2c1 (centres undefined) | inconclusive [inhibitor, single point] | 
Cc1cccc(C)c1NC(=O)c1oc2ccc3c(c2c1C)C(=O)CC(C)(C)O3 | inconclusive [inhibitor, single point] | 
O=C(NNc1nc2ccccc2s1)c1ccccc1F | inconclusive [inhibitor, partial curve, poor fit] | 
Cc1cc2oc(C(=O)Nc3c(C(=O)Nc4ccccc4)oc4ccccc34)cc(=O)c2cc1C | inconclusive [inhibitor, single point] | 
O=S1(=O)CC(N2CC=CC2)CN1Cc1cn(Cc2ccc(Cl)cc2)nn1 (centres undefined) | inactive | 
Cc1[nH]c2ccccc2c1C(=O)CN1CCCC(C)C1 (centres undefined) | inactive | 
COc1ccccc1C(NC(=O)C1CCN(CCOc2ccc(Cl)cc2)CC1)c1ccccn1 (centres undefined) | inconclusive [inhibitor, partial curve] | 
CN(C)c1ccc(NC(=O)c2sc(SCC(=O)Nc3nccs3)nc2N)cc1 | active: 16.4 µM | 
CCOc1ccc(NC(=O)CN(C)CC(=O)Nc2cccc(Cl)c2C)cc1OCC | inconclusive [inhibitor, single point] | 
Cc1cccn2c(=O)c(C(=O)NCCCN3CCCCC3C)c(O)nc12 (centres undefined) | inactive | 
O=C(Nc1c(F)cc(F)cc1Br)c1cc2nc(C(F)F)cc(C(F)F)n2n1 |  | inconclusive: -30.1% [inhibitor]
c1cncc(-c2nnc(-c3cccs3)o2)c1 | inactive | 
CC(=O)c1cccc(-c2ccnc3c2CC(C(=O)NCC2CC2)O3)c1 (centres undefined) | inconclusive [inhibitor, single point] | 
Cc1cnc(CN(C)C(=O)c2ccc3oc(Cc4ccc(Cl)cc4)nc3c2)[nH]1 | inconclusive [inhibitor, single point] | 

SMILES | Potency | activity change, negative = growth inhibition
COc1ccc(-c2cc(=O)oc3c(C)c(OC(=O)c4cccs4)ccc23)cc1 | inconclusive [inhibitor, full curve] | 
O=C1c2ccccc2C(=O)N1CCCc1nc2ccccc2c(=O)n1CCCn1ccnc1 | inconclusive [inhibitor, single point] | 
O=S(=O)(Nc1cccc(-c2cn3cccnc3n2)c1)c1ccccc1 | inconclusive [inhibitor, single point] | 
CCCN(c1ccc(C(C)C)cc1)S(=O)(=O)c1ccc2c(c1)oc(=O)n2CC(=O)OCC | inconclusive [inhibitor, single point] | 
CCOC(=O)c1c(C)[nH]c(C(=O)OC(C)C(=O)Nc2ccc(C)cc2)c1C (centres undefined) | inactive | 
CN(C)C(=O)C1(c2ccccc2)CCN(S(=O)(=O)c2ccccc2)CC1 | inconclusive [inhibitor, single point] | 
CCN1CCN(C(=O)c2cnn3c(C(F)F)cc(-c4ccc(C)cc4)nc23)CC1 |  | inconclusive: -30.8% [inhibitor]
COc1ccccc1N1CCN(C(=O)c2cc(S(=O)(=O)N3CCC(C)CC3)cn2C)CC1 | inconclusive [inhibitor, partial curve, poor fit] | 
COc1ccc(C(=O)Cn2nnc(-c3ccc(N4CCOCC4)cc3)n2)cc1OC | inconclusive [inhibitor, partial curve, poor fit] | 
O=S1(=O)CC/C(=N\Nc2ccc(F)cc2)c2ccsc21 | inactive | 
Cn1c(=O)c2c(ncn2CC(=O)Nc2nc(-c3ccccc3Cl)cs2)n(C)c1=O | inactive | 
Cc1cccc(OCc2n[nH]c(=S)o2)c1C | inactive | 
CCOC(=O)c1sc2nc(C)nc(SCC(=O)N(C)C3CCS(=O)(=O)C3)c2c1C (centres undefined) | inactive | 
C(=N\Nc1ncnc2ccccc12)/c1ccccc1 | active: 4.61 µM | 
CN(C)CCCN(C(=O)c1ccc(S(=O)(=O)N(C)C2CCCCC2)cc1)c1nc2ccc(F)cc2s1 | inconclusive [inhibitor, single point] | 
COc1ccc(CNC(=O)C2CCN(S(=O)(=O)c3ccc(SC)cc3)CC2)cc1 | inconclusive [inhibitor, partial curve] | 
COc1ccc(Cl)cc1-c1n[nH]c(=S)o1 | inactive | 
COc1ccccc1NC(=O)Nc1ccccc1Br | inconclusive [inhibitor, single point] | 
O=C(N/C=C/c1ccco1)OCc1ccccc1 | inconclusive [inhibitor, partial curve, poor fit] | 
O=C(Nc1nnc(S(=O)(=O)Nc2ccccc2)s1)C1CCCCC1 | inconclusive [inhibitor, single point] | 
COc1ccc(OC)c(CCNC(=O)CCC(=O)N2CCOc3ccc(C)cc32)c1 | inconclusive [inhibitor, single point] | 
CC(C)(C)c1ccc(C(=O)N/C(=C\c2cccs2)C(=O)N2CCOCC2)cc1 | active: 20.6 µM | 
O=C(CSc1ncccc1-c1nc2ccccc2[nH]1)N1CCCCC1 | inconclusive [inhibitor, single point] | 

Source: PubChem BioAssay AID686978 (National Center for Advancing Translational Sciences (NCATS), 2013)
